These results are taken from PubChem BioAssay AID485344 (National Center for Advancing Translational Sciences (NCATS), 2010).

The structures appear in SMILES notation. Screen size: about 340,000 compounds; about 6,900 (2%) were called active. Rule as the data show it: active = inhibition above about 30%; inactive = below that, where a call was filed. The list shows a part of the results, in another mix than the full data. Entries without a call were filed so in the source. A structure can be active in one record and inactive in another.

Sequence of UniProt P14416 (P14416 whole entry, looked up): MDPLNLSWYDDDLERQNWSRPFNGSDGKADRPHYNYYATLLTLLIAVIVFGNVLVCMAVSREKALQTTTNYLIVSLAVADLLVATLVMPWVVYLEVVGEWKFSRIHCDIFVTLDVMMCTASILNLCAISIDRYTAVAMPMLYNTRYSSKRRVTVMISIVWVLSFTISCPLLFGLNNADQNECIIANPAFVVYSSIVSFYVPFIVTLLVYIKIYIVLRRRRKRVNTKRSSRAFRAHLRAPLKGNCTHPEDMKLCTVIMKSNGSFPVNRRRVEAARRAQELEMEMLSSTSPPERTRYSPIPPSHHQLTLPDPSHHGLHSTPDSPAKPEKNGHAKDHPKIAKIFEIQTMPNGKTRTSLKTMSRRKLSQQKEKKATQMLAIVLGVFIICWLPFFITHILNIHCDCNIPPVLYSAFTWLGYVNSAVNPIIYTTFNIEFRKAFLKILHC

This assay deals with D(2) dopamine receptor (Homo sapiens) (UniProt P14416). Briefly: HTS Assay for Allosteric Antagonists of the Human D2 Dopamine Receptor: Primary Screen for Antagonists. Also: 0% is about no effect. The following applies: HEK293 TREx D2 cells, calcium flux, dopamine EC80; at 10 µM; stronger effect = higher value. The essentials:
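Measurement of antagonist activity uses fluorescent calcium dye in inducible HEK293 T-REx D2 cells: 10 s baseline, compound addition with 180 s read, EC80 dopamine addition with a further 180 s read.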
In general terms: A change in cytosolic calcium serves as a functional read-out for many receptors and channels.
With `O=C(NC1CC(=O)N(c2ccccc2)C1)c1ccc(Br)o1` (stereo not given), the inhibition was -9.73%.
On to `Cc1cccc(N(CC(=O)NCCSCc2ccc(Cl)cc2)S(C)(=O)=O)c1C`, for which the inhibition is -0.63%.
As for `COc1cccc(CNC(=O)C2CCN(c3nn4c(=O)cc(C)nc4s3)CC2)c1`, the figure is 5.01%; as for `COc1ccccc1Cn1c(CNS(=O)(=O)c2ccccc2Cl)nc2cccnc21`, 9.93%.
Regarding `CCOc1ccc(NC(=O)c2cc3c(n(-c4ccc(OC)cc4)c2=O)CC(C)(C)CC3=O)cc1`, the inhibition came to 10.6%.
Consider `COc1cc(Br)cc(CN2CCN(c3ncccn3)CC2)c1O`, for which the inhibition was active: 73.9%.
In the case of `CCOc1cc(CNC(=O)CCCn2c(=O)c3cccn3c3cccnc32)cc(OCC)c1OCC`, the inhibition was determined as 5.16%.
Take `CCc1ccccc1NC(=O)CSc1ncc(S(=O)(=O)c2ccccc2)c(N)n1`: the inhibition is -3.79%.
For the molecule `CC(=O)Nc1cccc(NC(=O)CSc2cn(CC(=O)N(C(C)C)C(C)C)c3ccccc23)c1`, the inhibition worked out at 3.35%.
Consider `Cc1oc(-c2ccc(Cl)cc2)nc1Cn1c(=O)cc(C)c2c(C)nn(-c3cccc(F)c3)c21`, for which the inhibition worked out at 14%.
Turning to `Cc1ccc(C(=O)Nc2ccc(C(=O)OCc3cc(=O)n4nc(C5CC5)sc4n3)cc2)cc1`, the inhibition worked out at 17.3%.
As for `CCn1cc(C(=O)N2CCN(c3ccc(F)cc3)CC2)c(=O)c2cc(S(=O)(=O)N3CCOCC3)ccc21`, the inhibition was -5.38%.
As to `COc1ccc(N2CCN(c3c4c(nc5nncn35)CCC4)CC2)cc1`, the inhibition is 5.42%.
In the case of `COc1ccc(NC(=O)C(=O)NCC(c2ccc3c(c2)OCO3)N2CCN(C)CC2)cc1` (stereo not given), the inhibition was -26.3%.
In the case of `Cc1ccc2c(c1)sc1nc(-c3cc4ccccc4oc3=O)cn12`, the inhibition was found to be 2.26%.
As for `CCOC(=O)c1ccccc1NC(=O)CN1C(=O)CC(c2ccco2)Sc2ccccc21` (stereo not given), the inhibition is -2.1%.
As for `CCc1ccccc1NC(=O)Cn1nnc(-c2nc(-c3ccc(C)cc3)no2)c1N`, the inhibition came out at 0.375%.
Consider `Cc1c2cnn(CC(=O)N3CCN(c4ccc(F)cc4)CC3)c(=O)c2c(C)n1Cc1ccccc1F`, for which the inhibition was -5.66%.
Take `CC(=O)c1ccc(OCC(O)CN2CCN(Cc3ccc4c(c3)OCO4)CC2)cc1` (stereo not given): the inhibition is active: 56.2%.
`CN(C)c1ccc(CNC(=O)Cn2ccc3cc(S(=O)(=O)N4CCCCCC4)ccc32)cc1`: the inhibition was 2.03%.
`COc1ccc(-c2nc(Cn3c(=O)cc(C)c4c(C)nn(-c5ccccc5)c43)c(C)o2)c(OC)c1`: the inhibition was -27.8%.
With `Cc1ccc2c(c1)C(c1ccc(F)cc1)N(C(=O)c1cccc(C(F)(F)F)c1)CC(=O)N2` (stereo not given), the inhibition was -2.47%.
For the molecule `Cc1ccc(-n2nnnc2CNC(=O)c2ccccc2C)cc1C`, the inhibition is -1.92%.
Consider `COc1cccc(N2CCN(Cc3cc(=O)oc4cc(C)ccc34)CC2)c1`, for which the inhibition worked out at 15.3%.
To `CC(C)OCCCN1C(=O)c2[nH]nc(-c3ccccc3O)c2C1c1cccc(OCc2ccccc2)c1` (stereo not given) belongs 18.4%.

For orientation: inhibition means the relative decrease from the control value, in per cent.
